From the supplement of paper PMC12067230
This is a noisy data set.

Assay: amyloid nucleation score relative to library mode (yeast Sup35 reporter selection) (log enrichment difference); higher = more amyloid nucleation; sequences are the first 22 residues of the Bri2 peptide extended by up to 12 random residues
Conditions: random library (experiment): 1;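 active = nucleation score significantly above 0 at FDR 0.05; inactive = not significantly above 0 or absent from output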
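Further: [psi-pin-] Saccharomyces cerevisiae expressing SupN fusions, induced by 100 µM Cu2SO4, selected 7 d at 30 °C without adenine and uracil, scored by deep sequencing of output versus input.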

Sequence	amyloid nucleation score
EASNCFAIRHFENKFAVETLICHHW	inactive
EASNCFAIRHFENKFAVETLICKFVCLLVYKCAI	-0.102
EASNCFAIRHFENKFAVETLICIDVGVYGGPREG	0.556
EASNCFAIRHFENKFAVETLICALHATRCAPRQS	-0.154
EASNCFAIRHFENKFAVETLICILLGSRSRSVGL	-0.187
EASNCFAIRHFENKFAVETLICTKRCLLCVQRSS	inactive
EASNCFAIRHFENKFAVETLICYMRDVSKSMFRW	inactive
EASNCFAIRHFENKFAVETLICELFCAWSASLRR	inactive
EASNCFAIRHFENKFAVETLICGKSS	inactive
EASNCFAIRHFENKFAVETLICVRLLSHALDMFS	inactive
EASNCFAIRHFENKFAVETLICGCALYQSFRGGL	3.69
EASNCFAIRHFENKFAVETLICCL	1.35
EASNCFAIRHFENKFAVETLICFVCGIMYSSVIA	inactive
EASNCFAIRHFENKFAVETLICLLQWACSCRLWS	inactive
EASNCFAIRHFENKFAVETLICAVKDPWCGDGTV	2.2
EASNCFAIRHFENKFAVETLICRGNRDSRFACDV	0.818
EASNCFAIRHFENKFAVETLICCMVRARCARLSD	inactive
EASNCFAIRHFENKFAVETLICAGRRKALREMAC	inactive
EASNCFAIRHFENKFAVETLICRQLPLPWAMPRD	inactive
EASNCFAIRHFENKFAVETLICMLIGDAFRDSAW	1.15
EASNCFAIRHFENKFAVETLICRKRDAPTAKACL	inactive
EASNCFAIRHFENKFAVETLICRNVSPRYKGKWW	inactive

Sequence	amyloid nucleation score
EASNCFAIRHFENKFAVETLICLGAPVSWRAGKW	4.63
EASNCFAIRHFENKFAVETLICPW	inactive
EASNCFAIRHFENKFAVETLICVLQDAYV	4.41
EASNCFAIRHFENKFAVETLICPLPFTIGGPCCV	inactive
EASNCFAIRHFENKFAVETLICFGCGVVQRWLGN	8.67
EASNCFAIRHFENKFAVETLICDHGVTFVCGTR	6.97
EASNCFAIRHFENKFAVETLICVGAGGRSLVVYS	-0.528
EASNCFAIRHFENKFAVETLICLELRKAASATED	inactive
EASNCFAIRHFENKFAVETLICCCGIECSIGCRG	inactive
EASNCFAIRHFENKFAVETLICEHWYNHFVMVLG	inactive
EASNCFAIRHFENKFAVETLICVKSTRNKHWVLC	inactive
EASNCFAIRHFENKFAVETLICCGMFQVWSFMFG	7.13
EASNCFAIRHFENKFAVETLICGSQYP	inactive
EASNCFAIRHFENKFAVETLICHLLLDG	inactive
EASNCFAIRHFENKFAVETLICLFKQAWARFAQQ	inactive
EASNCFAIRHFENKFAVETLICMMQAFMERYPED	inactive
EASNCFAIRHFENKFAVETLICLMERRIRATAIQ	inactive
EASNCFAIRHFENKFAVETLICTCSNGCHLVLYW	inactive
EASNCFAIRHFENKFAVETLICLSRKGGLTRYVP	inactive
EASNCFAIRHFENKFAVETLICPLVCAMYQRRTY	5.07
EASNCFAIRHFENKFAVETLICHLINIHGPSEWL	6.24
EASNCFAIRHFENKFAVETLICLISVSFNLPSKD	8.23

Same assay, conditions: random library (experiment): 2

Sequence	amyloid nucleation score
EASNCFAIRHFENKFAVETLICTSQNFVVITVEC	inactive
EASNCFAIRHFENKFAVETLICLAVRGIECGTVL	inactive
EASNCFAIRHFENKFAVETLICFCVFFSELLGFC	inactive
EASNCFAIRHFENKFAVETLICHFSVHWSYCSRF	inactive
EASNCFAIRHFENKFAVETLICTDSMTRSALFNY	inactive
EASNCFAIRHFENKFAVETLICVVISHNYVGW	2.84
EASNCFAIRHFENKFAVETLICVEISFFHSFDCL	4.76
EASNCFAIRHFENKFAVETLICAYRCSDRSVTVA	-0.604
EASNCFAIRHFENKFAVETLICNDLPG	inactive
EASNCFAIRHFENKFAVETLICNLN	6.54
EASNCFAIRHFENKFAVETLICVKDGNS	-0.0488
EASNCFAIRHFENKFAVETLICYYRFNVFISGRD	inactive
EASNCFAIRHFENKFAVETLICLGNAGMNMTWA	5.88
EASNCFAIRHFENKFAVETLICGLNLFPFNLSSQ	8.98
EASNCFAIRHFENKFAVETLICCVHIL	8.42
EASNCFAIRHFENKFAVETLICRVVYDNIMFKVW	inactive
EASNCFAIRHFENKFAVETLICGLLSWRVIIGVW	inactive
EASNCFAIRHFENKFAVETLICGRNWMSVVWKVR	0.908
EASNCFAIRHFENKFAVETLICHVCIYIRKWWLC	inactive
EASNCFAIRHFENKFAVETLICGLVSVMYFVNGL	6.61
EASNCFAIRHFENKFAVETLICVEYVVGACVNSA	inactive

Sequence	amyloid nucleation score
EASNCFAIRHFENKFAVETLICLPRSKVFPCRKL	inactive
EASNCFAIRHFENKFAVETLICVNRMNMYKITRI	inactive
EASNCFAIRHFENKFAVETLICHYVMDRNSVSLE	1.96
EASNCFAIRHFENKFAVETLICRYG	inactive
EASNCFAIRHFENKFAVETLICNVAYVINQPSAR	8.24
EASNCFAIRHFENKFAVETLICIRTWF	-0.683
EASNCFAIRHFENKFAVETLICCYCGA	7.95
EASNCFAIRHFENKFAVETLICECYFYWYRLRSF	inactive
EASNCFAIRHFENKFAVETLICEYNLY	inactive
EASNCFAIRHFENKFAVETLICVFQLEYNCTASC	inactive
EASNCFAIRHFENKFAVETLICCCRGRRMKEVEW	inactive
EASNCFAIRHFENKFAVETLICATSPNSMELRRR	inactive
EASNCFAIRHFENKFAVETLICGVIKTAWNHI	inactive
EASNCFAIRHFENKFAVETLICCSIRCLFWFSWK	inactive
EASNCFAIRHFENKFAVETLICTFHRSISDRLVW	inactive
EASNCFAIRHFENKFAVETLICCLLVVTHCDHPF	inactive
EASNCFAIRHFENKFAVETLICGLEYVKRIVLAR	inactive
EASNCFAIRHFENKFAVETLICPEKIN	inactive
EASNCFAIRHFENKFAVETLICLSLNYLSLQEHE	7.27
EASNCFAIRHFENKFAVETLICVSDC	inactive
EASNCFAIRHFENKFAVETLICENFIKNEVRI	8.84

Same assay, conditions: random library (experiment): 3

Sequence	amyloid nucleation score
EASNCFAIRHFENKFAVETLICQSVSCGRSSGEV	inactive
EASNCFAIRHFENKFAVETLICRCSAYQSHDKL	5.91
EASNCFAIRHFENKFAVETLICLSCHVQESSRNP	9.87
EASNCFAIRHFENKFAVETLICKYRYTCFVLLSV	1.11
EASNCFAIRHFENKFAVETLICHSQPDSVWMLRA	inactive
EASNCFAIRHFENKFAVETLICFQCAMSCLARPG	8.25
EASNCFAIRHFENKFAVETLICYTPSLRWALVLV	inactive
EASNCFAIRHFENKFAVETLICHACNAEMWRSLS	0.0182
EASNCFAIRHFENKFAVETLICLAGMEPTVLMSS	-0.218
EASNCFAIRHFENKFAVETLICKVGQETFSKGML	2.1
EASNCFAIRHFENKFAVETLICGMGDRS	0.845
EASNCFAIRHFENKFAVETLICKCADSPM	7.03
EASNCFAIRHFENKFAVETLICTMILRSGSLHRT	inactive
EASNCFAIRHFENKFAVETLICNPDWPMAVTRVV	inactive
EASNCFAIRHFENKFAVETLICCQARVVGERVFG	inactive
EASNCFAIRHFENKFAVETLICVVKNLTNADMSG	7.71
EASNCFAIRHFENKFAVETLICVTEVGDPLVRS	inactive

Sequence	amyloid nucleation score
EASNCFAIRHFENKFAVETLICLVKISARVERSL	1.17
EASNCFAIRHFENKFAVETLICRWWLLWIRARSA	inactive
EASNCFAIRHFENKFAVETLICYVYPACRGGSCV	8.77
EASNCFAIRHFENKFAVETLICDWFIDITENLSK	inactive
EASNCFAIRHFENKFAVETLICYLRFSRL	inactive
EASNCFAIRHFENKFAVETLICARSLIGLHVEVL	inactive
EASNCFAIRHFENKFAVETLICTRQSVVGLGCIA	inactive
EASNCFAIRHFENKFAVETLICLVFGSSMACVML	inactive
EASNCFAIRHFENKFAVETLICVQPAVRQKIHRR	3.58
EASNCFAIRHFENKFAVETLICFRVNTALVSCYF	inactive
EASNCFAIRHFENKFAVETLICRNWAVYGCGMCM	6.48
EASNCFAIRHFENKFAVETLICDSIGQCVVGAKS	3.86
EASNCFAIRHFENKFAVETLICPGPAGSSSGRGE	inactive
EASNCFAIRHFENKFAVETLICLTPQATYGWGNG	inactive
EASNCFAIRHFENKFAVETLICWRSGRCLLQSTR	inactive
EASNCFAIRHFENKFAVETLICRSAAFTRLKALL	inactive
